Sequences with one replicate were seen in a single cluster, so their values are uncertain.
Tested on: ATP
Assay: switch fluorescence ratio, 500 uM ATP over buffer (Cy3 cluster intensity, sum of 5 cycles each) (fold (ratio)); higher = stronger signal-on switching upon ATP binding; sequences stand for … in TCGTCGGCAGCGTCAGATGTGTATAAGAGACAGTTTTTTTTTTTTTTTTTTTTTTTTT…TC
Settings: aptamer strand: ATP DNA aptamer (quencher-CACCTGGGGGAGTATTGCGGAGGAAGG + anchor), 100 nM annealed; ATP concentration: 500 uM; one replicate
Outline: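 Clusters carrying Cy3-labelled switching strands on a modified Illumina MiSeq flow-cell were annealed to 100 nM quencher-labelled ATP aptamer and imaged in selection buffer. They were imaged again after 15 min with 500 uM ATP at 22 °C, over five buffer/ATP cycles with NaOH stripping and re-annealing in between. For each cluster, the fluorescence ratio is the summed Cy3 intensity of the target cycles divided by that of the buffer cycles, averaged per switch-domain sequence. Clusters outside 100-1000 RFU were left out.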
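Further: ATP exposure 15 min at 22 °C before imaging.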

| Sequence | switch fluorescence ratio |
| --- | --- |
| TTGGTAGTAA | 0.998 |
| GAACGCGACT | 1.5 |
| CCAAGACCAT | 0.975 |
| CGCGCGGGAT | 0.932 |
| GCTGTACTTC | 1.07 |
| AAAGTAAGTT | 1.02 |
| GAGCCATATT | 1.01 |
| TAAAGTGTTC | 1.03 |
| GCCTTCCATG | 1.28 |
| TAACCCGGTA | 1.03 |
| TACATTGTT | 1.02 |
| TCGAGCGAAT | 1.16 |
| AACCCCATCG | 1.15 |
| GAGCAATCGT | 1.65 |
| GTACCGCTCG | 0.987 |
| CCATTACTTG | 1.03 |
| AAGTGGCGA | 1.05 |
| GGTTATTCAC | 1.07 |
| TACTGGAGTG | 0.988 |
| CATTTTGCAT | 0.989 |
| CCAGACAATC | 2.31 |
| CCAAGTATTG | 1.01 |
| TCAAGAGGGA | 0.987 |

| Sequence | switch fluorescence ratio |
| --- | --- |
| ACCACTGCTT | 1.21 |
| TTGTTGGCCC | 0.977 |
| AACGGCTGTA | 1.01 |
| GTATTCACT | 1.06 |
| GGCTCGTGCA | 1.01 |
| TGAGGTCGAT | 1 |
| AAGAGAGCAC | 0.939 |
| CTTTCCGGGC | 1.28 |
| CAAGTATAAC | 0.982 |
| ACAGTAATTT | 1.09 |
| GGAAACCGAA | 1.18 |
| TACAGTT | 0.989 |
| TCTCGTTTTA | 1.02 |
| CATGCTTGTG | 1.05 |
| GTAATTAACT | 0.958 |
| TAAATATTGA | 1.01 |
| GTGTTTGT | 0.991 |
| GCTCCTCTG | 1.17 |
| GAACAAAGCC | 1.04 |
| GGATAGGCTT | 1.04 |
| CCATAAAACT | 1.03 |
| TTGTGGGATT | 0.983 |
| GTATACATAT | 1.03 |

| Sequence | switch fluorescence ratio |
| --- | --- |
| AATGAATGGT | 1.01 |
| TTGTCTTAGC | 0.928 |
| TGGCCGTCTG | 1.07 |
| CGTCAAAATG | 1.04 |
| ATACAAAGGC | 1.03 |
| TCCGGCTTCA | 1.04 |
| CAGTAAGTCA | 1 |
| AGAGGGCTAC | 1 |
| GTAAGACTGT | 1 |
| AATTTTTTGC | 1.03 |
| TGTAGTCGCA | 1 |
| TTTCTCAGCG | 0.996 |
| CTTTTGGGTG | 1.03 |
| TAGGGGATCT | 1.03 |
| CGTAACGCCT | 0.985 |
| TGATAAATCG | 1.03 |
| AAATTAACAA | 1.03 |
| CTTTCGTGCG | 0.99 |
| TCCGGGGCGC | 1.15 |
| GTTTGTGACC | 0.985 |
| GGAAGCCCCG | 1.01 |
| AGGGAAGGGT | 0.972 |
| GGCCCGAATT | 1.03 |

| Sequence | switch fluorescence ratio |
| --- | --- |
| TAATGGGCCA | 1 |
| GGCCAGTCAC | 0.984 |
| TGACTATGGC | 1 |
| GGGATACCGC | 1.11 |
| CCTTTGGGTA | 1.03 |
| TGTAGGTGAG | 1.17 |
| CATGCCCGTT | 0.986 |
| ATTAGTCGAG | 0.994 |
| GATTCTCGCT | 0.986 |
| ACGCTTCCAC | 1.49 |
| AAATATCAAC | 1.01 |
| GAGGACACGG | 0.994 |
| AGCGCGTGTA | 0.983 |
| CTGTGGAAGC | 1.02 |
| ATTAATCTCG | 0.956 |
| GACTCGCTGA | 1.16 |
| TGGCCTTTGA | 0.99 |
| TGTCTAATAG | 1.03 |
| AAGGAAGAC | 1.29 |
| GGTAATGCAT | 0.949 |
| GCGTGGTGTA | 1.04 |
| TGAACGGCCT | 1.02 |
| TATGCCAGCC | 1.07 |

| Sequence | switch fluorescence ratio |
| --- | --- |
| TTCAAACGTA | 1 |
| AACATTGAAG | 1.01 |
| CGTGAACTCA | 1.08 |
| TTTGTGGGCA | 0.986 |
| AGTAGGACGG | 1.33 |
| CCATAGGAAA | 0.949 |
| GTACCTGGGT | 1.02 |
| TTTATCATAT | 1.06 |
| GCATTTTTGA | 0.954 |
| AATAGGAGGA | 1.02 |
| ACTCATAGCC | 1.07 |
| GATCTCAAAG | 0.961 |
| TGTCGCCCCT | 1.05 |
| TCACCGGGTG | 4.46 |
| TTGTAAAGCT | 1.13 |
| CGGCGCTGTT | 1.19 |
| CCCTTTTACC | 1.03 |
| TTTTACAGGG | 0.999 |
| AAGTAGTGAA | 0.998 |
| TAAACGTA | 1.05 |
| ACTGTAGCGG | 1.06 |
| GCTCGCCAGT | 0.975 |
| ATTAATGGCT | 1.08 |

| Sequence | switch fluorescence ratio |
| --- | --- |
| TCTTTGTTGC | 1.06 |
| TGGTCGGAAA | 0.996 |
| TATAGGATAA | 0.993 |
| GTGCACAAGG | 0.983 |
| AACTGTTGAG | 1 |
| TGCCAGGCGA | 1.02 |
| CTGCAACAGC | 1.82 |
| AGCTGGCTGG | 1.01 |
| TCAGTACCCC | 1.07 |
| AAATGGGAAT | 1.01 |
| ATGCCATAGC | 0.964 |
| CCGCATGCGC | 4.18 |
| TTCGAGAGGA | 0.982 |
| CGGTGTATAC | 1.27 |
| CCGTTCCGAT | 1.36 |
| TTGGATGCAC | 1.03 |
| TCTTTCAATT | 1.02 |
| AAGTCAAGAA | 1.04 |
| TCATGAAAGT | 0.97 |
| ACGTTAGATT | 1.09 |
| AAACTCGTCT | 1.02 |
| ACGAGGGGC | 1.03 |
| ACTGTATGA | 1.16 |

| Sequence | switch fluorescence ratio |
| --- | --- |
| CGCACTAAC | 5.31 |
| CCTGCCATAT | 2.15 |
| TGCAAAGAAT | 0.984 |
| CGTACGTTAC | 2.07 |
| CGTAGTGGGT | 1.17 |
| GACATTCGGT | 0.995 |
| TTGCGTGAGT | 1.04 |
| GGTTATGTTA | 0.99 |
| ATCATTTTAT | 0.985 |
| CCGAACATAG | 2.64 |
| GCTTCTGGTA | 0.971 |
| TTCTAAGATC | 1.38 |
| ATCGGTCGGC | 0.995 |
| CTCGGGAGGC | 1.06 |
| TATTAGATGG | 0.935 |
| CTAAGCAAAA | 1.01 |
| GCAGCAGGTG | 4.45 |
| GAATTATGTC | 1.03 |
| CCTGGGGCT | 1 |
